The full ranking holds about 33,000 sequences; the median of “E-score (-0.5 to 0.5)” is about -0.043, and the highest 2% start at about 0.37. The list shows a part of the results.
Each sequence was assayed against T1, Upc2 (UniProt Q12151) (assay: PBM E-score (8-mer binding enrichment) (E-score (-0.5 to 0.5)); higher = stronger / more preferred TF binding; most listed sequences are background and not binding sites). Conditions: protein concentration: 200 nM; construct: GST-full length.
T1 sequence: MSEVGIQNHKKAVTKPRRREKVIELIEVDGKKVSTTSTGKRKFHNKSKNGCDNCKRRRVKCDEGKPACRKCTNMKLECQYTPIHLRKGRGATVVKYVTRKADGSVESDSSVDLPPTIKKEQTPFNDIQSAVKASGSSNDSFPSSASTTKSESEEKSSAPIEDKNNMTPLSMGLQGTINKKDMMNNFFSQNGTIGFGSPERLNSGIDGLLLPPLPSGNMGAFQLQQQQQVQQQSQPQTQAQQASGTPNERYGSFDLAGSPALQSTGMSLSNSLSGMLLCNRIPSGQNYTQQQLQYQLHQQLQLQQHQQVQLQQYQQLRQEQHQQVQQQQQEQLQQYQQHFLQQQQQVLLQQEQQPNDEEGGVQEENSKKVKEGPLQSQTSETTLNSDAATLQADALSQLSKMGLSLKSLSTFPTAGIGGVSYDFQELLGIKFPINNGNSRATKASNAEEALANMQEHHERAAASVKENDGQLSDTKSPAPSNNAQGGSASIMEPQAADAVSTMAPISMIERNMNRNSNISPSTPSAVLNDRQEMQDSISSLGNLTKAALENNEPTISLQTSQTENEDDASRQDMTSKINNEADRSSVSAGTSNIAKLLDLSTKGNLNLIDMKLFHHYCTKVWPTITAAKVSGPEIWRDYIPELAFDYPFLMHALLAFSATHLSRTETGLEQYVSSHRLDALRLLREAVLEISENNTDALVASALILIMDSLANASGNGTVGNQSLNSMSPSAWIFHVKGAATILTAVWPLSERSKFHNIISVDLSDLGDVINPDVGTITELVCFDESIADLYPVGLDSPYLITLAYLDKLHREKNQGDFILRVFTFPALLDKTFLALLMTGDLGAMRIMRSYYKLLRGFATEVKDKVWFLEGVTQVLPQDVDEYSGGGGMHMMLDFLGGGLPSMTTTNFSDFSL
Procedure, shortened: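 Yeast transcription factors, full-length or as DNA-binding domains, were expressed with a GST tag using PURExpress in vitro transcription/translation. At about 100-200 nM they were applied to universal all-10-mer Agilent arrays, double-stranded by primer extension on fresh or once-stripped slides. Fluorescent anti-GST detected bound protein, and masliner normalised the scans. E-scores for ungapped eight-base words, pooled with reverse complements, came from the Universal PBM Analysis Suite.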
ACCGCATC was tested, and the “PBM E-score” value was -0.136. For CGCGATTC, the “PBM E-score” value was 0.142. With AGATCACC the “PBM E-score” value was -0.167. In the case of GATTCAAA, the “PBM E-score” value is reported as -0.019. For CATCCCAC, the “PBM E-score” value was -0.0602. GATAGTGC was tested, and the “PBM E-score” value was -0.00518. In the case of ACTAATGG, the “PBM E-score” value is reported as -0.175. With CGGCGCCA the “PBM E-score” value was 0.0347. In the case of ACGCCCCG, the “PBM E-score” value is reported as 0.0679. In the case of CCTGACAC, the “PBM E-score” value is reported as -0.145. CAGAGCCG was tested, and the “PBM E-score” value was -0.184. With ATACCTAG the “PBM E-score” value was -0.071. With AAGAGGAG the “PBM E-score” value was -0.0725. In the case of AGTGTGTA, the “PBM E-score” value is reported as -0.0147. For GAGTTATC, the “PBM E-score” value was 0.187. For CACCTTTA, the “PBM E-score” value was -0.00625. GTAATTGA was tested, and the “PBM E-score” value was 0.0655. With GATTTACC the “PBM E-score” value was 0.0463. For ATGGCAAT, the “PBM E-score” value was 0.0317. With CTAGCTAC the “PBM E-score” value was -0.0636. In the case of GACCGGGA, the “PBM E-score” value is reported as -0.224. For AATGTCCA, the “PBM E-score” value was -0.237. For CAAATTCA, the “PBM E-score” value was -0.341. In the case of AACAAGCT, the “PBM E-score” value is reported as 0.055. In the case of GTTTGGGA, the “PBM E-score” value is reported as 0.245. In the case of ACACCACT, the “PBM E-score” value is reported as 0.0512. In the case of CCACCCGC, the “PBM E-score” value is reported as -0.0242. For AAACGAAA, the “PBM E-score” value was 0.46. With AAGCTCAG the “PBM E-score” value was -0.22. For TAAGCTCA, the “PBM E-score” value was -0.0544. For CGTTTGAG, the “PBM E-score” value was 0.396. CCACACGA was tested, and the “PBM E-score” value was 0.134. With GAACTTCC the “PBM E-score” value was -0.116. With AGATATCA the “PBM E-score” value was -0.00096. In the case of TGGTATAA, the “PBM E-score” value is reported as 0.119. In the case of CATAACGC, the “PBM E-score” value is reported as -0.057. CATAGCGC was tested, and the “PBM E-score” value was 0.00114. GATATACC was tested, and the “PBM E-score” value was 0.0293. In the case of AAACTTCC, the “PBM E-score” value is reported as -0.188. For AACGCGTT, the “PBM E-score” value was 0.248. For GTTCCCCA, the “PBM E-score” value was 0.151. TAGGAACA was tested, and the “PBM E-score” value was -0.141. With GATGTGAA the “PBM E-score” value was 0.135. AACGCGTC was tested, and the “PBM E-score” value was 0.159. AAAACATC was tested, and the “PBM E-score” value was -0.0769. CAACAGAG was tested, and the “PBM E-score” value was -0.265. With GCGAAATA the “PBM E-score” value was 0.0512. For CCATACCC, the “PBM E-score” value was 0.0447. With CGGAGACA the “PBM E-score” value was 0.0386. CTGTGGGC was tested, and the “PBM E-score” value was -0.0385. For GGCACCGA, the “PBM E-score” value was -0.169. With CTGGGAGC the “PBM E-score” value was -0.117. AGGAGGGC was tested, and the “PBM E-score” value was -0.199. CCATTCCA was tested, and the “PBM E-score” value was -0.279. In the case of ACCCTTAT, the “PBM E-score” value is reported as -0.00308. CCCCCGGA was tested, and the “PBM E-score” value was -0.311. For AATCGCGC, the “PBM E-score” value was -0.0864. AAAATTCG was tested, and the “PBM E-score” value was 0.0439. With CGCGGTGA the “PBM E-score” value was -0.0344. With GAAGCAAC the “PBM E-score” value was -0.131. In the case of CCTCCCCG, the “PBM E-score” value is reported as 0.0377. For TAACCGCA, the “PBM E-score” value was 0.0604. In the case of CGATCAAA, the “PBM E-score” value is reported as -0.0198. AGGAATTA was tested, and the “PBM E-score” value was 0.0253. In the case of ATGCTTGG, the “PBM E-score” value is reported as -0.148. With CTACGAGA the “PBM E-score” value was 0.359. ATCGATCC was tested, and the “PBM E-score” value was -0.00332. CATGCGCG was tested, and the “PBM E-score” value was 0.0164. For AAGAAGTC, the “PBM E-score” value was -0.0794. ATTTTTCA was tested, and the “PBM E-score” value was 0.011. For AGAAGAGA, the “PBM E-score” value was -0.177. In the case of GCGACCGA, the “PBM E-score” value is reported as 0.111. In the case of AACTTCCC, the “PBM E-score” value is reported as 0.0684. In the case of GGGTTAAA, the “PBM E-score” value is reported as 0.0764. AATGGAGC was tested, and the “PBM E-score” value was -0.0993. GGTCCGAC was tested, and the “PBM E-score” value was -0.0192. In the case of CAGTTTCG, the “PBM E-score” value is reported as 0.0699. With CTTCTGTA the “PBM E-score” value was 0.0315. GCCGCGGC was tested, and the “PBM E-score” value was 0.167. AACGCACA was tested, and the “PBM E-score” value was 0.124. In the case of ATCATGGA, the “PBM E-score” value is reported as -0.238. With CGAGAAAG the “PBM E-score” value was 0.127. In the case of AAGTTTGC, the “PBM E-score” value is reported as -0.00016. In the case of CGAGCAGA, the “PBM E-score” value is reported as 0.0766. For AACTCGTA, the “PBM E-score” value was 0.455. For CGCTCTGC, the “PBM E-score” value was 0.112.
